# From publication PMC7819943, “Rice protein-binding microarrays: a tool to detect cis-acting elements near promoter regions in rice”
# The other results are listed elsewhere or left out.
# Biological target: T1, OsWOX13 (Oryza sativa, UniProt Q5QMM3 1-267)
# T1 sequence: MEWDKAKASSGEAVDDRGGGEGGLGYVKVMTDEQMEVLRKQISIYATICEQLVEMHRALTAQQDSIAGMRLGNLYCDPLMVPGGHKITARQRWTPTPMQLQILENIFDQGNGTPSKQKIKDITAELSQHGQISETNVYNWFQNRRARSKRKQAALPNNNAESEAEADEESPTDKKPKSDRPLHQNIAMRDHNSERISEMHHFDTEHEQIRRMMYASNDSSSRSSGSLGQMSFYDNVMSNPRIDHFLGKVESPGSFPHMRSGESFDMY
# Assay: protein-binding microarray (RPBM); PBS, 2% BSA, 51.3 ng/ul salmon testes DNA, 50 uM zinc acetate, 200 nM TF, 25 C, 1 h; high values mean tight binding
# Details: protein: recombinant; tags: N-terminal polyhistidine and DsRed monomer fusion (pET32a); label: CyDye5-dUTP incorporated in the synthesized complementary strand; 3' TTTTT single-stranded linker to array surface; dsDNA, one strand shown
# Summary of the method: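 A custom Agilent array was converted to double-stranded form by primer extension with Cy5-dUTP and blocked with 2% BSA. Protein at 200 nM in PBS with 2% BSA, salmon testes DNA and 50 µM zinc acetate was applied for 1 h at 25 °C, followed by washing. The proteins were polyhistidine–DsRed N-terminal fusions of transcription factors, expressed in E. coli BL21-CodonPlus and Ni–NTA-purified. The binding signal is per-feature fluorescence intensity (arbitrary units) from an Axon 4000B scanner.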
row,Sequence,binding signal
1,GACTAATTGGTGGATGCATGAACCGACGTGTCGATTTTCACGGAGTCACCTAGTGCAG,22200 fluorescence intensity (a.u.)
2,GATTAATTAGACTTAATAAATTCGTCTCGTGGTTTACTAACGGAGTCACCTAGTGCAG,37900 fluorescence intensity (a.u.)
3,TTAGTTACTAAATTAAACTAATGACTTTCTCTTTGTTGCCCGGAGTCACCTAGTGCAG,7750 fluorescence intensity (a.u.)
4,CCCAGTGACAGATCAAAGAATTGCACCAGTGCCACTGCCACGGAGTCACCTAGTGCAG,7030 fluorescence intensity (a.u.)
5,ACAGATTTGTGACAAATCCAGTCCACTCCAACGCATGGACCGGAGTCACCTAGTGCAG,5300 fluorescence intensity (a.u.)
6,CCAGCATAATTAGCTCTGCTAATGGGACACCGTAACTAGACGGAGTCACCTAGTGCAG,18000 fluorescence intensity (a.u.)
7,AAATTGATAATGAGTGATGATCGGTACCTGTAAACTGTGGCGGAGTCACCTAGTGCAG,15100 fluorescence intensity (a.u.)
8,CTAAACTTCTAATGACGGGAACTAAACGCACCCTCAGTCACGGAGTCACCTAGTGCAG,9300 fluorescence intensity (a.u.)
9,CAAATTGAACATTCACTATTAGGCCCGAACTCACGATATGCGGAGTCACCTAGTGCAG,10900 fluorescence intensity (a.u.)
10,AAGGTGATGAATTCATCAACAGCTATAGCTGATAGATCAGCGGAGTCACCTAGTGCAG,3670 fluorescence intensity (a.u.)
11,TATTGTATAGATTTATTTAATCATTTTGATGTTAACATGTCGGAGTCACCTAGTGCAG,3350 fluorescence intensity (a.u.)
12,TGTAATTAGCACTTCTTAACTAAGTGTTTGGTCTTTCGGTCGGAGTCACCTAGTGCAG,24200 fluorescence intensity (a.u.)
13,GAATATGTGATTTGCTCGTCAATTCCCCAGTTAGTTGCAGCGGAGTCACCTAGTGCAG,33200 fluorescence intensity (a.u.)
14,CCGAAATTTTGGTTTTCTAATATTTTGAATTTGGTTAAAGCGGAGTCACCTAGTGCAG,5360 fluorescence intensity (a.u.)
15,ATGCTTAATTTGCAACCTAGGTATTGTGAGCTGTCCGGGCCGGAGTCACCTAGTGCAG,23400 fluorescence intensity (a.u.)
16,AGTTATAATGGAATTAATTATAATTATAGTATAGTTAGATCGGAGTCACCTAGTGCAG,28600 fluorescence intensity (a.u.)
17,CCTAACCAATTGAATTATACTCACTTTACAAATAGATCATCGGAGTCACCTAGTGCAG,3480 fluorescence intensity (a.u.)
18,AAAATATATAATTATTATTTATTTTATTATGGCCTAAATTCGGAGTCACCTAGTGCAG,13800 fluorescence intensity (a.u.)
19,CTTCGTCAATCCCAATATATGATGGATCAGTCTTTCACATCGGAGTCACCTAGTGCAG,17100 fluorescence intensity (a.u.)
20,CATTTCCGAGTTGATTAATTTGCAACCATCATGCATCCATCGGAGTCACCTAGTGCAG,17700 fluorescence intensity (a.u.)
21,ACTAATTAATCAACCTATCCTAGTGAACATTTGGAAACTTCGGAGTCACCTAGTGCAG,34800 fluorescence intensity (a.u.)
22,TTGGTTGGTCGAGGTTGATCTAACGCAGCCATTAGTCAAACGGAGTCACCTAGTGCAG,42400 fluorescence intensity (a.u.)
23,GAGTTGACAGAGTCAGCAATGCATGCTGCATAGTCAGATTCGGAGTCACCTAGTGCAG,3900 fluorescence intensity (a.u.)
24,GTATTAATTGGGGTGATTCATGACAACGATGAGATATTAACGGAGTCACCTAGTGCAG,32700 fluorescence intensity (a.u.)
25,ACTTTTCAGTTACATCATCTCTAATTTCAATTGAAATCCACGGAGTCACCTAGTGCAG,7120 fluorescence intensity (a.u.)
26,CTGATCGATCAAAGTGAATTGAATTGAAGTGAAAGCCAACCGGAGTCACCTAGTGCAG,3620 fluorescence intensity (a.u.)
27,ATGAAATCCATTGATTAACCGATAAAATTCAATGAAATCTCGGAGTCACCTAGTGCAG,4300 fluorescence intensity (a.u.)

row,Sequence,binding signal
1,TTGTTGACAGGTATATTGTCTATGTATTCTAGGATTTTGACGGAGTCACCTAGTGCAG,10200 fluorescence intensity (a.u.)
2,GCTGACAGGGACAATCGGATGGAGCAGAATGTCTGAACGTCGGAGTCACCTAGTGCAG,11000 fluorescence intensity (a.u.)
3,ATAATATGTAATTACCATATTTCTAAATATATCGATATTTCGGAGTCACCTAGTGCAG,13300 fluorescence intensity (a.u.)
4,TCTGATAAATTTTAAGGCCTGTAGGTTTAAGGAAACATAGCGGAGTCACCTAGTGCAG,9420 fluorescence intensity (a.u.)
5,GAGCTCGTCACTGTCAATTGACAAAATTCAGTAGCAAATCCGGAGTCACCTAGTGCAG,11200 fluorescence intensity (a.u.)
6,GAAAATTGTTCATATTACCTCCTAAGGTGGTTTTGCATATCGGAGTCACCTAGTGCAG,4340 fluorescence intensity (a.u.)
7,AGGGATGACTGATGAACTTGTTCCTTCAGTTACACGCGCACGGAGTCACCTAGTGCAG,12500 fluorescence intensity (a.u.)
8,TAAATAAGAGTATCGTGATTAGTTGAGATTGGAAACTGTGCGGAGTCACCTAGTGCAG,9350 fluorescence intensity (a.u.)
9,ACTCTAAATTTAAACTTTTCACTCAATTGAAACTTTTCAACGGAGTCACCTAGTGCAG,15300 fluorescence intensity (a.u.)
10,CTTAAACAAATGATAGTACGATCCCATCTGATTGGGTGTTCGGAGTCACCTAGTGCAG,7540 fluorescence intensity (a.u.)
11,AAAATTATCATAATAAATAATTGGAGCTGAATCGAGTAATCGGAGTCACCTAGTGCAG,18100 fluorescence intensity (a.u.)
12,TTCACTTAGCTACATCAATCAAGGAAAATTAAGCTTAGCACGGAGTCACCTAGTGCAG,12700 fluorescence intensity (a.u.)
13,GCTAGTTAATTGTCGACAATTTTCAGCTTTCAATTTGTTGCGGAGTCACCTAGTGCAG,10200 fluorescence intensity (a.u.)
14,ATAATTGAGTAGATAATCCTTGCAATAATCCGCTCAATAACGGAGTCACCTAGTGCAG,8180 fluorescence intensity (a.u.)
15,CAATTAAACACGTGATTTCTATCCGGCACGTAACGTACCCCGGAGTCACCTAGTGCAG,16000 fluorescence intensity (a.u.)
16,TTCTGTCAAACTAAAATTAATGGTCTGTCTGAAAGTGGTGCGGAGTCACCTAGTGCAG,6110 fluorescence intensity (a.u.)
17,TCTGATTGCAGAACATACAGAATCCTAATCAATGCTGACCCGGAGTCACCTAGTGCAG,24600 fluorescence intensity (a.u.)
18,TGGACAATCAATCAGGACAACCGCAGTACGGCATGGCTGACGGAGTCACCTAGTGCAG,29400 fluorescence intensity (a.u.)
19,CGCTGTCATAAATTGAAATTAAATGACGATCAGCGTGAATCGGAGTCACCTAGTGCAG,40300 fluorescence intensity (a.u.)
20,ATAACGACGAGGCAATCAAATGTATAGTAATCCCTTCGTCCGGAGTCACCTAGTGCAG,4630 fluorescence intensity (a.u.)
21,AATGATTTCTTCCATGAGGTTCTACCTCTTGTTAAAATTCCGGAGTCACCTAGTGCAG,3530 fluorescence intensity (a.u.)
22,TCTGATTAATTGTGCTTCACGGAAGGAAGGAAGGAGACTGCGGAGTCACCTAGTGCAG,49000 fluorescence intensity (a.u.)
23,AAATTAATTGCTGCACGATATGATATGGCCACTCGCACACCGGAGTCACCTAGTGCAG,36300 fluorescence intensity (a.u.)
24,ATAATACTTAATTAATCACGTGCTAATGGCCTGCTCCGTTCGGAGTCACCTAGTGCAG,16600 fluorescence intensity (a.u.)
25,CCATCAATCACCCCATCGATGCTTCTCCACCGGAGAAGTCCGGAGTCACCTAGTGCAG,12000 fluorescence intensity (a.u.)
26,AGTAATTAAATCTTGAAACTTGACACATTGAACCATCAAACGGAGTCACCTAGTGCAG,10300 fluorescence intensity (a.u.)
27,CACTCTAATTTGTGGACTACTACAGCTATTTGTTGATACCCGGAGTCACCTAGTGCAG,14100 fluorescence intensity (a.u.)
